# Source: PubChem BioAssay AID488969 (Vanderbilt High Throughput Screening Facility, 2010)
# The full ranking holds about 110,000 compounds; the median of “z-score” is about -0.1, and the highest 2% start at about 2. This is one part of the list. Activity calls are given as the source filed them.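 How the source made its calls: active means z-score in the third read window above 3 or below -3; inactive means the rest.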
# Biological target: Metabotropic glutamate receptor 8 (Rattus norvegicus) (UniProt P70579)
# Test: mGluR8 Gi/Go-coupled signaling modulation – cell-based, rat, thallium flux, HTS, primary screen (AID 488969)
# Settings: HEK293 rat mGluR8, GIRK (G protein-gated inwardly rectifying potassium channel) thallium flux, FluoZin2; at 10 µM; stronger effect = higher value; submaximal glutamate (EC20) added with thallium
# Chain of UniProt P70579 (P70579 whole entry, looked up): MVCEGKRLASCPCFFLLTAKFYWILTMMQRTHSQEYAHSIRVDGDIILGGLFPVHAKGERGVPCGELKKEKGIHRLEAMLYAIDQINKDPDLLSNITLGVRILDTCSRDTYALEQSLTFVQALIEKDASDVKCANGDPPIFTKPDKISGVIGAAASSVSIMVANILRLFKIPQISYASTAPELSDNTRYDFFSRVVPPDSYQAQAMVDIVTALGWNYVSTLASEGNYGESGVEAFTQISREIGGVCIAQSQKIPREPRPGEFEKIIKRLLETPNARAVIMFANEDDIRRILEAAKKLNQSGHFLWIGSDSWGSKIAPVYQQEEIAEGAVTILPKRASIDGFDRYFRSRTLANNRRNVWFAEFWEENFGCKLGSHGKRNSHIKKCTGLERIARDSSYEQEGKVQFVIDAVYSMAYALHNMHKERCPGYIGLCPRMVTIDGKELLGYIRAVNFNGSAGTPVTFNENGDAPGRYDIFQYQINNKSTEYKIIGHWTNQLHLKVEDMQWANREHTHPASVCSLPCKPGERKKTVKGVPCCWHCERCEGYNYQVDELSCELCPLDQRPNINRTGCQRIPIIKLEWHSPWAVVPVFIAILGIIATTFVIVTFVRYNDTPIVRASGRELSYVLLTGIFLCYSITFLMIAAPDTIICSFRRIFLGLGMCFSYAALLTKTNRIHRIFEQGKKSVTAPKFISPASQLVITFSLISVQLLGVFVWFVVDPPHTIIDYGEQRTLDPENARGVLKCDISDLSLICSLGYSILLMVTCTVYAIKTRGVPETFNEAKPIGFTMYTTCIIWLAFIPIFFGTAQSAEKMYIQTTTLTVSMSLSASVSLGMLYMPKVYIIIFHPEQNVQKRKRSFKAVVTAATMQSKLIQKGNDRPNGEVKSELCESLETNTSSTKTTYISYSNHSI
row,SMILES,z-score
1,CN=C1S/C(=C\c2cn(C(C)=O)nc2-c2ccccc2)C(=O)N1C,-0.262
2,CN1CCN(CC#CC2(O)CCCCC2)CC1,-0.162
3,CC1(C)CC(=O)N(c2ccccc2)C1(C)O (stereo unspecified),-0.532
4,O=C1CN(S(=O)(=O)c2ccccc2)CCN1S(=O)(=O)c1ccccc1,-0.202
5,Cc1ccc2c(c1)C(c1ccccc1)N(C(=O)c1ccc(Br)o1)CC(=O)N2 (stereo unspecified),-0.894
6,CCN(CC)C(NC(=O)Cc1ccccc1)C(Cl)(Cl)Cl (stereo unspecified),-0.194
7,C1=CC2CC1CC2CN1CCN(Cc2ccccc2)CC1 (stereo unspecified),-0.14
8,COc1ccc(/C=C(\NC(=O)c2ccc(OC)cc2)C(=O)NC(CCSC)C(=O)O)cc1 (stereo unspecified),-0.0378
9,CCOC(=O)N1N=C(CC)CC1(O)C(F)(F)F (stereo unspecified),0.565
10,COC(=O)c1c(C)[nH]c(C(=O)/C=C/c2ccc(Cl)cc2)c1C,-0.0114
11,COc1ccc(OC)c(NC(=O)c2cccc(S(=O)(=O)N(Cc3ccccc3)c3ccccc3OC)c2)c1,-0.203
12,CCOC(=O)C(CSCc1ccccc1)NC(=O)OC(C)(C)C (stereo unspecified),-1.04
13,COc1ccc(NC(=O)c2ccc(=O)oc2)cc1,-0.457
14,C=CCN(CC=C)C(=O)Cc1ccc(F)cc1,-0.392
15,Fc1ccc(NC(=S)NN2CCOCC2)cc1Cl,-0.351
16,Cc1ccc(S(=O)(=O)O/N=C2\CCCc3ccccc32)cc1,-0.354
17,O=C(Nc1ccc(N2CCN(C(=O)c3ccccc3)CC2)cc1)c1cc2ccccc2o1,-0.123
18,Cc1cc2ccccc2n1CCNC(=O)Cc1cccc2ccccc12,0.079
19,O=c1cc[nH]c2c(C(F)(F)F)cccc12,-0.157
20,COc1ccc(C(=O)/C=C(/C)N(C)C)cc1,0.37
21,COc1cccc(C2c3c(oc4ccccc4c3=O)C(=O)N2CCCN(C)C)c1OC (stereo unspecified),-0.0845
22,N#CC1(Nc2ccccc2)C(=O)Nc2ccccc21 (stereo unspecified),-0.288
23,CCOC(=O)c1c(C)[nH]c(C)c1C(=O)COC(=O)c1ccc(Cl)c(S(N)(=O)=O)c1,-0.149

row,SMILES,z-score
1,CCCn1c(O)c(CN2CCCC(C)C2)c(C)c(C#N)c1=O (stereo unspecified),0.0972
2,CC(C)C(=O)Nc1cccc(C(=O)Nc2nncs2)c1,0.121
3,Cc1onc(-c2c(Cl)cccc2Cl)c1C(=O)NCCN1CCOCC1,0.787
4,Cc1ccc(C)c(N2CCN(C(=S)NC3CCCCC3)CC2)c1,0.514
5,Cc1ccc(S(=O)(=O)CCC(=O)NCCN2C(=O)S/C(=C\c3ccccc3)C2=O)cc1,-0.13
6,CCN(CC)S(=O)(=O)c1csc(C(=O)NC2CCCCC2)c1,0.101
7,Cc1ccc(-c2csc3nnc(SCC(=O)NCc4ccc5c(c4)OCO5)n23)cc1,-0.53
8,Cc1ccc(C(=O)OCC(=O)NC(=O)c2cccn2C)cc1,-0.0462
9,Cn1c(-c2ccccc2)c[n+]2c1-c1ccccc1C2,-0.0447
10,COC(=O)Cc1c(O)ccn(Cc2ccc(F)cc2)c1=O,0.00177
11,Cc1nc2ccc(S(=O)(=O)NCC(=O)N3CCC(C)CC3)cc2s1,-0.149
12,S=C(NCCC(c1ccccc1)c1ccccc1)Nc1cccc(Cl)c1,-0.0667
13,CC(=O)N1CCc2c(sc3c2c(=O)n(-c2ccccc2)c(=O)n3Cc2ccccc2Cl)C1,-0.336
14,c1ccc2oc(SCc3cn4ccsc4n3)nc2c1,0.0354
15,COCCCNC(=O)c1ccc(Cn2c(=O)c3ccccc3n(Cc3ccc(C)cc3)c2=O)cc1,0.211
16,CCOc1ccc2nc(SCC#N)c(C#N)cc2c1,1
17,CC(OC(=O)c1cc2sccc2n1C)C(=O)NCCc1ccccc1 (stereo unspecified),-0.478
18,COC(=O)c1ccc(Sc2ccccc2NS(=O)(=O)c2ccc(C)cc2)nc1,1.05
19,O=S(=O)(N/N=C\C=C\c1ccccc1)c1ccc(Cl)cc1,-0.13
20,CN(C)S(=O)(=O)c1cccc(C(=O)C2=C3SC=C(c4ccccc4)N3CC2)c1,-0.584
21,Cc1ccc(-c2cc(C)nc3ncnn23)cc1,-0.18
22,Cc1cccc(CCN(C(=O)Cc2cccs2)C(C(=O)NC2CCCCC2)c2cccnc2)c1 (stereo unspecified),-0.143
23,COc1ccc(NC(=O)CN2CCOCC2)cc1,0.139

row,SMILES,z-score
1,COc1ccc(-n2c(N)c(C(=O)NCc3ccco3)sc2=S)cc1,0.16
2,Cc1ccc(NC(=O)CCCN2C(=O)/C(=C/C=C/c3ccccc3)SC2=S)cc1,-0.221
3,O=C(Sc1nnc(-c2ccccc2)o1)N1c2ccccc2Sc2ccccc21,1.17
4,O=[N+]([O-])c1ccc(N/N=C/c2cn(-c3ccccc3)nc2-c2ccccc2)cc1,0.00805
5,OCCN1CCN(CC(O)COc2ccc(-c3ccccc3)cc2)CC1 (stereo unspecified),-0.0757
6,O=C(COC(=O)C1CC(=O)N(c2ccc3c(c2)OCCO3)C1)Nc1ccc2c(c1)CCC2 (stereo unspecified),-0.623
7,O=C(Nc1ccc(Cl)cc1)c1cccnc1N1CCCCC1,-0.771
8,O=C(Nc1ccccc1)Nc1nc(-c2ccc(Cl)cc2)cs1,-0.373
9,NC(=O)C1(N2CCCCC2)CCN(Cc2ccc(F)cc2)CC1,0.0305
10,O=C1CSC(c2ccc(Cl)cc2Cl)N1c1ccccn1 (stereo unspecified),0.145
11,O=C(NCCCN1CCN(c2cccc(Cl)c2)CC1)c1ccc(N2CCCC2=O)cc1,-0.352
12,C=CCn1sc(N)c(C(=O)OCC)c1=S,1.34
13,CCOC(=O)c1ccc(NC(=O)Cc2coc3cc4c(cc23)CCC4)cc1,-0.247
14,CCOC(=O)CSc1nnc(NC(=O)c2cccc([N+](=O)[O-])c2C)s1,0.774
15,Cc1ccc2nc(NC(=O)c3ccc(Cn4cc(Cl)cn4)o3)sc2c1,-0.0112
16,Cc1ccc(N2CC(C(=O)OCc3ccc([N+](=O)[O-])cc3)CC2=O)cc1 (stereo unspecified),-0.517
17,CC1CCN(S(=O)(=O)c2ccc(NC(=O)CN3CCN(c4ccccc4)CC3)cc2)CC1,0.0353
18,COc1ccc(C(=O)Nc2cc(C)cc(C)c2)cc1S(=O)(=O)N1CCOCC1,-0.311
19,CCOC(=O)N1CCN(CC(O)COc2c(OC)cccc2OC)CC1 (stereo unspecified),0.676
20,O=C(NCc1ccccc1)C(C(=O)c1ccc(F)cc1)n1ccccc1=O (stereo unspecified),1.37
21,O=C(Nc1nnc(-c2ccc(Cl)cc2)o1)c1nc2ccccc2s1,active: 4.07
22,CC(C)(C)NC(=O)C(c1ccccc1F)N(Cc1ccco1)C(=O)c1csnn1 (stereo unspecified),1.63
23,COC(=O)C1CCN(c2nc3ccccc3nc2C(C#N)C(=O)OCC(C)C)CC1 (stereo unspecified),0.0146

row,SMILES,z-score
1,Cc1ccc(N(CC(=O)Nc2cc(Cl)ccc2Oc2ccccc2)S(C)(=O)=O)cc1C,-0.153
2,COc1ccc(CN2C(=S)NC(C)(C)CC2(C)O)cc1 (stereo unspecified),-0.287
3,Cc1nc2c(-c3ccccc3)c(C)[nH]n2c(=O)c1Cl,active: -3.24
4,O=C(/C=C/c1ccccc1[N+](=O)[O-])NCc1cccnc1,0.162
5,Cc1cc(C)c(NC(=O)Cn2nnc(C(=O)NCc3cccs3)c2N)c(C)c1,-0.11
6,CCOC(=O)C1CCCN(C(=O)COc2ccccc2O)C1 (stereo unspecified),0.0285
7,CCc1ccc(N2C(=O)CN(Cc3ccc(OC)c(OC)c3)C2=S)cc1,-0.147
8,CC(=O)c1cnc2cc(-c3ccccc3)nn2c1C,0.362
9,Cc1nc2nc(COc3ccccc3)nn2c(C)c1Cl,-0.597
10,c1ccc(-n2nnnc2-c2cnc(-c3ccncc3)nc2-c2cccs2)cc1,-0.663
11,COc1ccc(OCCSc2nnc3sc4ccccc4n23)cc1,-1.11
12,CC12CCC(C(=O)N(CC(O)CN3CCCCCC3)C1=O)C2(C)C (stereo unspecified),0.13
13,O=C(CSc1nnc2c(Cl)cc(Cl)cn12)N1CCN(c2ccc(F)cc2)CC1,-0.0326
14,O=C(CCSc1ccccc1)N1CCOCC1,0.751
15,CCCCNC(=O)c1ccc2c(c1)ncn2C1CCCC1,-0.0454
16,O=C(CCC(=O)N(c1ccccc1)C(C(=O)NC1CCCC1)c1ccncc1)Nc1cccnc1 (stereo unspecified),0.244
17,CC1CCN(C(=O)CNC(=O)c2ccc(Cl)cc2Cl)CC1,-0.0798
18,Brc1cc2c(cc1C1Nc3ccccc3C3C=CCC31)OCO2 (stereo unspecified),0.172
19,Cc1cc(C)cc(OC2CCCCC2NS(=O)(=O)c2ccccc2)c1 (stereo unspecified),-0.848
20,Cc1ccc(OCC(=O)Nc2ccc(N3CCOCC3)cc2)cc1,-0.356
21,Cc1cccc(NC(=O)CCn2ccnc2C)c1,1.08
22,Cc1nn(-c2ccccc2)c2nc(C(F)(F)F)[nH]c(=O)c12,-0.113
23,CN(Cc1nc(-c2ccccn2)no1)S(=O)(=O)c1ccc(Br)cc1,0.403

row,SMILES,z-score
1,COC(=O)c1cc(OC)c(OC)cc1NC(=O)c1cc(-c2ccccc2)nc2ccccc12,-0.917
2,Cc1onc(-c2ccccc2)c1C(=O)NNC(=S)NC(=O)c1ccc(Cl)cc1Cl,0.272
3,CC(/C=N/NC(=O)c1ccc(CN2c3cccc4cccc(c34)S2(=O)=O)cc1)c1ccccc1 (stereo unspecified),-0.557
4,Cc1onc(-c2ccccc2Cl)c1C(=O)NCCn1ccc2ccccc21,0.0809
5,Cc1ccc(C)c(S(=O)(=O)N2CCCOC2CNC(=O)C(=O)NCCCn2ccnc2)c1 (stereo unspecified),0.19
6,Nc1nnc(SCc2coc(-c3ccc(Cl)cc3)n2)s1,0.0719
7,COC(=O)C(OC(=O)c1ccc(OC)cc1)C(=O)OC,0.00696
8,CCN(CC)c1ccc(/C=N/Nc2nc3ccccc3[nH]2)c(O)c1,-0.178
9,COc1ccc(CN(CCO)CCO)cc1[N+](=O)[O-],0.405
10,O=C(CCNS(=O)(=O)c1cccs1)Nc1nccs1,-0.101
11,COc1cccc2cc(C(=O)N3CCN(c4ccccn4)CC3)c(=O)oc12,-0.0562
12,O=C(COc1ccc2ccccc2c1Br)NNC(=O)Nc1ccccc1,-0.0526
13,COCCn1c(SCC(=O)N2CCCc3ccccc32)nc2c(c1=O)SC(C)C2 (stereo unspecified),-0.393
14,CCOc1ccc2c(C)nc(NC3=NC(C)(C)C=C(C)N3)nc2c1,1.18
15,CCOc1ccc(CCNC(=O)C2CCCN(c3nnc(-n4cccc4)s3)C2)cc1OCC (stereo unspecified),0.457
16,COCCN(C(=O)CNC(=O)c1ccco1)C(C(=O)NC1CCCCC1)c1cccc(OC)c1 (stereo unspecified),-0.311
17,O=C(COC(=O)CNC(=O)c1cccc(F)c1)NCCC1=CCCCC1,-0.7
18,COc1ccc(NC(=O)CSc2nncs2)cc1OC,0.0455
19,CCOC(=O)C1=C(c2ccccc2)NC(=S)NC1c1cc([N+](=O)[O-])ccc1OC (stereo unspecified),0.0688
